# In the RNAGym collection of RNA variant scans (doi:10.7554/elife.90254):
# The source gives no read counts; variants with many changes may rest on few reads.
# B1: LINE1-full (parent)
# chain: UACGUAGGUGGUUUUCCCCUGAUAGUGCUAAGGGGGCCUGGAAGUUUGGACUGGGCAGAGCUCAACACAGCGUGGCAAAGUGGCUGUGGCUAGACUGCCUCUCUGGAUUCCUCGUCACUCAGCAGGGCAUCUCUGAGAGAAAUGCC
# Variants of: B1
# Assay: self-cleavage, relative activity (ratio to wild type); higher = more cleavage; in vitro, sequencing; the parent is a self-cleaving ribozyme
row,Variant,self-cleavage
1,U14C U15C U100C U102C A129G,1.31
2,U14C U20A A43G A121G,1.02
3,U14C U20A A57U U73C A140G,0.1
4,U14C U20A A94G A141G,0.39
5,U14C U20A G40U C84U,0.1
6,U14C U20A U45C A77G,2.54
7,U14C U20A U91A U102A,0.61
8,U14C U20A U134C A141U,1.02
9,U14C U20C A50G,1.84
10,U14C U20C A107G,0.18
11,U14C U20C G27A A69G U143A,0.42
12,U14C U20C U46A,1.43
13,U14C U20C U62C U109C A140G,0
14,U14C U20C U96C C103A U115C,0
15,U14C U20C U100C G122A U143A,2.07
16,U14C U23A A50G U104C U130A U134C,0
17,U14C U23A G60A U143A,0.13
18,U14C U23C A43G U62C G82U,0.31
19,U14C U23C G75C,1.33
20,U14C U23C U46C U96A,0.15
21,U14C U26A A57U A136G A142G,0.24
22,U14C U26A U45C G126A A136G U143C,0.67
23,U14C U26A U52C C98U,0.19
24,U14C U26C A50G A94U U112C,0

row,Variant,self-cleavage
1,U14C U26C A50G U52A A57G G89C,0
2,U14C U26C A57G A65U U96A,0.56
3,U14C U26C A59G U132C A141U,0.16
4,U14C U26C A79G,1.2
5,U14C U26C A142G,0.98
6,U14C U26C C98A U112C U119C U130C,0.46
7,U14C U26C U47G A64G A140G,0
8,U14C U26C U85C G122U,0.15
9,U14C U26C U119A,1.09
10,U14C U26G A65U A77G,0.33
11,U14C U29A A30G A79U,0.66
12,U14C U29A G35U U85A,0.1
13,U14C U29C A64C,0.47
14,U14C U29C U46C,0.78
15,U14C U39A A59G A65U A94U A142U,0.08
16,U14C U39A A59G U73A A117C A136G,0.08
17,U14C U39A A67G A77U U85C U91A A142G,0
18,U14C U39A A69U U73A,0.1
19,U14C U39A A79U,1.43
20,U14C U39A A142G,1.34
21,U14C U39A G44A A69G G86U U130C,0.05
22,U14C U39A U73A,2.12
23,U14C U39C A42G,1.25
24,U14C U39C A59G A140G,0

row,Variant,self-cleavage
1,U14C U39C A64G A78G,0
2,U14C U39C A65U U85C,0.67
3,U14C U39C G80A U130C,1.98
4,U14C U39C U52A U134C,2.09
5,U14C U39C U102C A117G U119A,0
6,U14C U45A A117G G122A,2.21
7,U14C U45C A59G A140G,0
8,U14C U45C A59G U87C,0.92
9,U14C U45C A136U,1.68
10,U14C U45C C51U U73C U132C,0.71
11,U14C U45C G80U U96G,0.04
12,U14C U45C U52C U85C,0
13,U14C U45C U143C,1.62
14,U14C U45G A129G,2.37
15,U14C U45G U47C U73A A136U,0.69
16,U14C U46A A50G U96A A124G C131U U134A A136U,0.1
17,U14C U46A A78U,2.05
18,U14C U46C A129G A140G,1.06
19,U14C U46C U62C G114U U132C,0.1
20,U14C U46C U115C,0.98
21,U14C U47A A121G,1.08
22,U14C U47A U85A A138G,0
23,U14C U47A U115C,1.16
24,U14C U47A U143C,0.94

row,Variant,self-cleavage
1,U14C U47C A59G A142C,0.26
2,U14C U47C A138G,1.96
3,U14C U47C U130C,2.51
4,U14C U47G A77U,1.23
5,U14C U47G U108C,1.53
6,U14C U52A A107U A124U,1.33
7,U14C U52C U73A C98G,0.06
8,U14C U52C U109C,0.37
9,U14C U52G A65G,0.09
10,U14C U62A A140G,0.21
11,U14C U62A A141G,0.06
12,U14C U62A C84U A140G,0.08
13,U14C U62C U87A,0.07
14,U14C U73C A77G U102A U115A A142U U143C,1.02
15,U14C U73C A78G A129G,2.7
16,U14C U73C U132C A140G,0.77
17,U14C U73G U134C A141G,2.19
18,U14C U81A C99U A124U C133U A141G,0.85
19,U14C U81C A92U,2
20,U14C U81C A129U U134C A142G,1.15
21,U14C U81C U130C,2.21
22,U14C U81C U132C,1.25
23,U14C U85A A138G A141G U143C,0.09
24,U14C U85A U143C,0.16

row,Variant,self-cleavage
1,U14C U85C U96A C113A,0.09
2,U14C U87A A94U U109A,0.17
3,U14C U87A A129U,0.03
4,U14C U87A C120A,0.07
5,U14C U87G A92G,0.21
6,U14C U87G A121U,0.21
7,U14C U91C U100C U115A,0.48
8,U14C U91G A92G,0.09
9,U14C U96A U104A U115C,0
10,U14C U96A U109C,0.45
11,U14C U96C A121U,0.24
12,U14C U96C A136G U143C,0.2
13,U14C U96C U100A,0.17
14,U14C U100A U130C,1.01
15,U14C U100C U119A,1.4
16,U14C U100G U130C,0
17,U14C U102C U119A,0.37
18,U14C U108A U109G A121G A141G,0.88
19,U14C U108C A129G,1.86
20,U14C U109A A140G,1.08
21,U14C U109A U130C,1.47
22,U14C U109C C113U,1.25
23,U14C U112A G125A,1.16
24,U14C U112C A129C,2.54

row,Variant,self-cleavage
1,U14C U115A A138G,1.79
2,U14C U115C A129G,0
3,U14C U115G A138G,2.08
4,U14C U119C A124G A140G,0.71
5,U14C U119C U132C U134G,0.3
6,U14C U130A C145A,0.87
7,U14C U130C C145G,0.66
8,U14C U132C A140U,1.51
9,U14C U134C A142G,0.53
10,U14G A22G G122U U132G,0.92
11,U14G A22G U87A,0.88
12,U14G A30U U115A A121U,1.84
13,U14G A42U U62C A138G,0.43
14,U14G A65G U85C U102C,0
15,U14G A67G U81A,0.66
16,U14G A94G U102C,0.3
17,U14G A94G U134A,0.6
18,U14G A124U A129G,1.37
19,U14G C18U A43G U45C U96A U115A,0.08
20,U14G C56U A136U A138U,0.2
21,U14G U26C A142G,0
22,U14G U29C A59G A136G,0
23,U14G U45A G105A,0.75
24,U14G U45C A124G,0.51

row,Variant,self-cleavage
1,U14G U47C A69G G86A C110U,0.1
2,U14G U62C U81C,0
3,U15A A22G U108C,0
4,U15A A31G A92U U143C,0
5,U15A A31G U87A,0.23
6,U15A A42G U47A U62C U112C,0
7,U15A A42G U102C,0.69
8,U15A A43G A64U A141G,0.41
9,U15A A43G U45C U100A U130C,0.29
10,U15A A43G U45C U115C,1.02
11,U15A A43U U45A,0.22
12,U15A A50G A141G,1.2
13,U15A A57U U85C,0.21
14,U15A A59U A117U,1.6
15,U15A A67G A77G U87A,0
16,U15A A67G U115A A138G,0.11
17,U15A A69G U102A U109G,1.31
18,U15A A77U G88U U91A,0.04
19,U15A A78U A94G G105A,0.12
20,U15A A78U U87C G89A,0.09
21,U15A A79G A117G U130A,0.48
22,U15A A79G A129U,0.42
23,U15A A92U G144A,0.71
